{
  "source": "PubChem BioAssay AID504333",
  "about": "(National Center for Advancing Translational Sciences (NCATS), 2011)",
  "note": "Among all 360,000 compounds or so, about 16,000 (4.4%) were called active. Inconclusive means that the source gave no clear call. Such entries were picked first, then a sample of the others. The call rests on the fitted dose curve; in most records, active means well fitted inhibition curve with a large enough effect; inconclusive means small, poorly fitted or top-dose-only effect; inactive means no such curve, though single readings can be large or run the other way. Where the call is inconclusive, the potency comes from a doubtful curve fit. On the % scale 0 is the no-effect control and ±100 the full control effect; potency means the concentration at half of the fitted maximal effect; tags describe the fitted curve by direction and shape.",
  "data": [
    {"target": "Bromodomain adjacent to zinc finger domain protein 2B (Homo sapiens) (UniProt Q9UIF8)", "sequence (Q9UIF8 whole entry, looked up, the tested form may be a part)": "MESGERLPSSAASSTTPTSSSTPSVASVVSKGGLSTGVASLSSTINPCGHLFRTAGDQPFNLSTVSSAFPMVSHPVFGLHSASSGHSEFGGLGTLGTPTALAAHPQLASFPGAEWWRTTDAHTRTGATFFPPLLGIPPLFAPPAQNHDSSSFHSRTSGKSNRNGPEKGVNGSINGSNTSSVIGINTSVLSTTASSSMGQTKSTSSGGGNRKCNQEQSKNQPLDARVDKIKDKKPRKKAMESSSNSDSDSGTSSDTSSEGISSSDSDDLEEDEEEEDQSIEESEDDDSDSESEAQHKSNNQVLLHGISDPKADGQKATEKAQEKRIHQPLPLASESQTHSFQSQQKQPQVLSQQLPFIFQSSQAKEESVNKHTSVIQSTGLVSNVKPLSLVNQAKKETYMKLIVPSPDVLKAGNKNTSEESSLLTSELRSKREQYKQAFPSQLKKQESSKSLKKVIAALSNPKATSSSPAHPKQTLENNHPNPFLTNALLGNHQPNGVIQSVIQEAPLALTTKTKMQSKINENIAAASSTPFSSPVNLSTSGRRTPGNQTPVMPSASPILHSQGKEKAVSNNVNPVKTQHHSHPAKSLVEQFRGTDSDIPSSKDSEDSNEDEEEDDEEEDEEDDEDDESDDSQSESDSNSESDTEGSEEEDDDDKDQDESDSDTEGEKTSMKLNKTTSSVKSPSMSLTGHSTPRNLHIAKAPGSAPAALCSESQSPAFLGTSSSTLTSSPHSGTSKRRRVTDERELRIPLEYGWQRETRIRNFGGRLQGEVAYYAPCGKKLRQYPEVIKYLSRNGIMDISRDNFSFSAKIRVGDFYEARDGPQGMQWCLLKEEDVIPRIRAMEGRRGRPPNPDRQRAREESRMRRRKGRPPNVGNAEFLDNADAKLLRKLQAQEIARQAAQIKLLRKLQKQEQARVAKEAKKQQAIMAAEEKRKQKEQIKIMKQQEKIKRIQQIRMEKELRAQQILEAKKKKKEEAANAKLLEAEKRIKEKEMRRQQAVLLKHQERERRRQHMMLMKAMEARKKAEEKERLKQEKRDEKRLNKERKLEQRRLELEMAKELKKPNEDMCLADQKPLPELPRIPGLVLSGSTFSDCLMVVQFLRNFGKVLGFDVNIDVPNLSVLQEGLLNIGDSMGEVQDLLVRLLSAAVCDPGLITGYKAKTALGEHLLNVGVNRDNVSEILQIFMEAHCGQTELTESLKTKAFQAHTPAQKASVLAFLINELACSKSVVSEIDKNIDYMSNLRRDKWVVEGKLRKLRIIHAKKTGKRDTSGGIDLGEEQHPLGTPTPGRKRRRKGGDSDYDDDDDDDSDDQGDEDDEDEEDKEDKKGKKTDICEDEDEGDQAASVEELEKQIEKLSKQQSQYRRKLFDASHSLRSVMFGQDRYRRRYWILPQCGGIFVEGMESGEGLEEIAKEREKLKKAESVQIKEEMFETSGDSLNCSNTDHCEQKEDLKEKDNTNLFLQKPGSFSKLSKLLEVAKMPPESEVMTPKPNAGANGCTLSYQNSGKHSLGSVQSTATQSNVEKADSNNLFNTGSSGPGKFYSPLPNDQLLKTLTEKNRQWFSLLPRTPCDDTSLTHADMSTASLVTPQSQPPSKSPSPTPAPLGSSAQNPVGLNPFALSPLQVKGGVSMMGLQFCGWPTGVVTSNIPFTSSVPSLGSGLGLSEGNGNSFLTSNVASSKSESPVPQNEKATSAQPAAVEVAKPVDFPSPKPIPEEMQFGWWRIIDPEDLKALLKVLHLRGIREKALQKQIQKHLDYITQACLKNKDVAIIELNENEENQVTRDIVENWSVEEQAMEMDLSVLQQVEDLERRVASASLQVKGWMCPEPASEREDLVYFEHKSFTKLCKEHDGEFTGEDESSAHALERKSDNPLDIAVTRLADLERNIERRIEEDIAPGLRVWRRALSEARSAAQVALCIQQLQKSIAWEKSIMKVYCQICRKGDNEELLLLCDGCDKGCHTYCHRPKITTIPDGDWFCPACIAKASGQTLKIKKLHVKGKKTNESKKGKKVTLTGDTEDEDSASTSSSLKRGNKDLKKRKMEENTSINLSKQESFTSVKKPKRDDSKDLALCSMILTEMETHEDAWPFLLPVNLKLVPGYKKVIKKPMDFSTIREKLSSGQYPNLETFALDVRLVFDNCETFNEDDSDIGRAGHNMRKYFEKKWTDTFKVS", "experiment": "qHTS Assay for Inhibitors of BAZ2B; further: nearly all actives have a fitted effect of over 60% in size", "conditions": "AlphaScreen BAZ2B-H3K14Ac peptide displacement; activity change, negative = inhibition: at 114 µM (top of the series)", "method_in_brief": "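AlphaScreen displacement: compounds (up to 110uM) incubated 30 min at room temperature with a preformed 50 nM BAZ2B/50 nM biotinylated H3K14Ac peptide complex in PBS pH 7.4 with Tween-20. Donor and acceptor beads at 10 ug/mL final added, 20 min light-protected before reading.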", "values": [
      {"smiles": "O=[N+]([O-])c1ccc(-c2nc(=S)c3c(o2)CCCC3)cc1", "Potency": "inconclusive: 89.1 µM [inhibitor, single point]"},
      {"smiles": "CC(C)(C)c1cc(CCC(=O)N2CCC2)cc(C(C)(C)C)c1O", "Potency": "active: 89.1 µM"},
      {"smiles": "COc1ccc(Cn2c(=O)c3oc4ccccc4c3n(Cc3ccc(F)cc3)c2=O)cc1", "activity change, negative = inhibition": "inactive: -20.8%"},
      {"smiles": "COc1cc2c(cc1NC(=O)C1CCCO1)oc1ccccc12", "note": "(stereo not drawn)", "activity change, negative = inhibition": "inactive: 6.1%"},
      {"smiles": "CC(=O)Nc1ccc(-c2cc(N)n(-c3ccccc3)n2)cc1", "activity change, negative = inhibition": "inactive: -33.8%"},
      {"smiles": "COc1ccc(N2CCN(C(=O)CCSCc3ccccc3F)CC2)cc1", "Potency": "inconclusive: 35.5 µM [inhibitor, partial curve]"},
      {"smiles": "COc1cc(NC(=O)CSc2ncc(S(=O)(=O)c3ccc(Br)cc3)c(=O)[nH]2)cc(OC)c1", "Potency": "inconclusive: 44.7 µM [inhibitor, partial curve]"},
      {"smiles": "COc1ccc(/C=N/Nc2nc3ccccc3[nH]2)c(OC)c1OC", "Potency": "inconclusive: 39.8 µM [inhibitor, partial curve]"},
      {"smiles": "COc1ccc(OC)c(NC(=O)c2cccn2-c2nnc(N3CCCCC3)s2)c1", "activity change, negative = inhibition": "inactive: -32.6%"},
      {"smiles": "CC1CCN(C(=S)NC(=O)c2ccco2)CC1", "Potency": "inconclusive: 89.1 µM [inhibitor, single point]"},
      {"smiles": "Fc1ccc(C2CCNCC2COc2ccc3c(c2)OCO3)cc1", "note": "(stereo not drawn)", "Potency": "inconclusive: 44.7 µM [inhibitor, partial curve]"},
      {"smiles": "COc1cc(-c2ccc(Nc3ccccc3C(=O)O)c(OC)c2)ccc1Nc1ccccc1C(=O)O", "Potency": "active: 5.62 µM"},
      {"smiles": "CC(=O)/C=C\\c1ccccc1OC(=O)c1cc2ccccc2oc1=O", "activity change, negative = inhibition": "inactive: -2.87%"},
      {"smiles": "CC(C)c1nn2c(=O)cc(COc3cccc(NC(=O)c4ccco4)c3)nc2s1", "activity change, negative = inhibition": "inactive: -1.22%"},
      {"smiles": "CCO[C@H]1OC(C(N)=O)=C[C@@H](c2ccccc2)[C@@H]1CCCO", "activity change, negative = inhibition": "inactive: -8.31%"},
      {"smiles": "CNc1ccc(Br)cc(C(=O)/C=C/c2ccc(Cl)cc2Cl)c1=O", "Potency": "inconclusive: 12.6 µM [inhibitor, full curve]"},
      {"smiles": "COc1cc2oc(=O)cc(C)c2c(OC)c1OC", "activity change, negative = inhibition": "inactive: 4.39%"},
      {"smiles": "Cc1ccc(C)c(-c2[nH]c3c(c2-c2c(-n4cccc4)n(C)c(=O)[nH]c2=O)c(=O)[nH]c(=O)n3C)c1", "activity change, negative = inhibition": "inactive: -10.4%"},
      {"smiles": "CC(C)NC(=O)/C(C#N)=C/c1ccc(N(C)C)o1", "activity change, negative = inhibition": "inactive: -23.7%"},
      {"smiles": "Cc1ccc(S(=O)(=O)NCc2ccc(C(=O)NC3CCC(O)CC3)cc2)cc1C", "note": "(stereo not drawn)", "activity change, negative = inhibition": "inactive: 9.65%"},
      {"smiles": "O=C(CN1CCN(c2ccc(F)cc2)CC1)Nc1nccs1", "Potency": "inconclusive: 89.1 µM [inhibitor, single point]"},
      {"smiles": "COc1ccccc1-n1c(C)cc(/C=C2\\C(=N)N3N=C(CC(=O)N4CCOCC4)SC3=NC2=O)c1C", "Potency": "active: 50.1 µM"},
      {"smiles": "CC1CCN(c2ccc(/C=N\\Nc3nncn3N)cc2[N+](=O)[O-])CC1", "Potency": "inconclusive: 39.8 µM [inhibitor, partial curve]"},
      {"smiles": "COc1cc2cc(CN(Cc3cccs3)C(=S)Nc3ccc(C)cc3)c(=O)[nH]c2cc1OC", "Potency": "inconclusive: 89.1 µM [inhibitor, single point]"},
      {"smiles": "COc1cccc(NC(=S)Nc2cccc3ccccc23)c1", "Potency": "inconclusive: 89.1 µM [inhibitor, single point]"},
      {"smiles": "CCN(C(=O)C(C)N1C(=O)/C(=C/c2cccs2)SC1=S)C1CCS(=O)(=O)C1", "note": "(stereo not drawn)", "Potency": "inconclusive: 50.1 µM [inhibitor, partial curve]"},
      {"smiles": "CCOc1ccccc1NC(=O)COc1coc(CN2CCc3ccccc3C2)cc1=O", "Potency": "inconclusive: 89.1 µM [inhibitor, single point]"},
      {"smiles": "O=C(CCc1c[nH]c2ccccc12)Nc1ncccc1O", "Potency": "active: 56.2 µM"},
      {"smiles": "COCCn1c(=N)c(C(=O)NC(C)c2ccccc2)cc2c(=O)n3cc(C)ccc3nc21", "note": "(stereo not drawn)", "activity change, negative = inhibition": "inactive: -0.589%"},
      {"smiles": "C=CCN1c2ccccc2[C@]23C[C@@H](C(=O)OC)N(C(=O)c4ccc(Br)cc4)C2=NC(C(=O)OC)=C(C(=O)OC)[C@H]13", "Potency": "inconclusive: 79.4 µM [inhibitor, single point]"},
      {"smiles": "Cc1ccc(C)c(-n2cc(-c3ccc(Cl)cc3)nc2SCC(=O)NC2CCS(=O)(=O)C2)c1", "note": "(stereo not drawn)", "Potency": "inconclusive: 44.7 µM [inhibitor, partial curve]"},
      {"smiles": "Cc1ccc(Sc2ccc(/C=C3/C(=O)NN(c4ccccc4)C3=O)o2)cc1", "Potency": "inconclusive: 25.1 µM [inhibitor, partial curve]"},
      {"smiles": "COc1cccc(-c2csc(NC3OC(=O)c4c3ccc(OC)c4OC)n2)c1", "note": "(stereo not drawn)", "Potency": "active: 79.4 µM"},
      {"smiles": "CCc1cccc(NC(=O)C(c2ccccc2)N2Cc3ccccc3C2=O)c1", "note": "(stereo not drawn)", "activity change, negative = inhibition": "inactive: -18.9%"},
      {"smiles": "CC(=O)N1/C(=C/c2ccc(N(C)C)cc2)C(=O)c2ccccc21", "Potency": "active: 10 µM"},
      {"smiles": "O=C1CCCC2=C1C(c1ccc(O)c(O)c1)c1c(ccc3ncccc13)N2", "note": "(stereo not drawn)", "Potency": "active: 44.7 µM"},
      {"smiles": "COc1ccc(NC(=O)c2nc[nH]c2C(=O)NCCCCCNC(=O)OC(C)(C)C)cc1", "Potency": "inconclusive: 89.1 µM [inhibitor, single point]"},
      {"smiles": "COC(=O)CCCCCNc1ccc(C(=O)OC)cc1N", "Potency": "inconclusive: 89.1 µM [inhibitor, single point]"}
    ]}
  ]
}
